Test results reported in PubChem BioAssay AID485294 (National Center for Advancing Translational Sciences (NCATS), 2010).
Among all 370,000 compounds or so, about 150 (0.041%) were called active. Inconclusive results, whose numbers are uncertain, are shown with a selection of clear calls. The call rests on the fitted dose curve; in most records, active means well fitted inhibition curve with a large enough effect; inconclusive means small, poorly fitted or top-dose-only effect; inactive means flat fitted curve, though single readings scatter. No potency is given beside an inconclusive call; the fits are too rough.

Each compound was assayed against Beta-lactamase (Escherichia coli (strain K12)) (UniProt P00811) (assay: qHTS Inhibitors of AmpC Beta-Lactamase (assay with detergent)). Settings: AmpC hydrolysis of nitrocefin, absorbance 480 nm, 0.01% Triton; activity change, negative = inhibition: at 114 µM (top of the series).
Summary of the method: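 20 mM phosphate pH 7.0 + 0.01% (detergent screen) or 0.0001% Triton X-100; 5.3 nM AmpC reagent; cpd preinc 15 min RT; nitrocefin (800 uM stock) to start; A480 q20 s × 4 min; Activity was normalised to no-enzyme and no-compound control wells.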
Further: nearly all actives have a fitted effect of over 25% in size.
Potency means the concentration at half of the fitted maximal effect; tags describe the fitted curve by direction and shape.
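Wherever activity change, negative = inhibition is given: 0% = no-compound wells and -100% = no-enzyme wells.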

UniProt P00811, sequence (P00811 whole entry, looked up): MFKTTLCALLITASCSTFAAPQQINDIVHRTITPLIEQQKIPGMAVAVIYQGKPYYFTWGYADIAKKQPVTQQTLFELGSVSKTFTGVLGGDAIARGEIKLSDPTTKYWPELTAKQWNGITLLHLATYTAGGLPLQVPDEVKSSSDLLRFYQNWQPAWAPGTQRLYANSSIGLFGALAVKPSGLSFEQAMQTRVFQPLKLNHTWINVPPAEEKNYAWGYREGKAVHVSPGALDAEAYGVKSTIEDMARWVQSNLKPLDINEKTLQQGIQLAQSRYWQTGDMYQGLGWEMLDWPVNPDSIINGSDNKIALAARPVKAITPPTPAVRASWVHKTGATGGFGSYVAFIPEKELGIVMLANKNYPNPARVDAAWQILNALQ

| SMILES | activity change, negative = inhibition | Potency |
| --- | --- | --- |
| Cc1noc(-c2ccc(C(F)(F)F)cc2)c1NC(=O)Nc1ccc(Cl)cc1 | inactive: -7.28% | – |
| CCC(=O)n1nc(-c2ccccc2)nc1SCC(=O)Nc1ccc(C)cc1 | – | inconclusive [inhibitor, partial curve] |
| Cc1ccc(N(C(=O)Cn2nnc3ccccc32)C(C(=O)NCc2ccco2)c2ccc(C)o2)cc1 (stereo not given) | – | inconclusive [inhibitor, partial curve, poor fit] |
| O=C(OCC(=O)N1CCN(C(=O)c2ccco2)CC1)c1cc(-c2ccco2)nc2ccccc12 | – | inconclusive [inhibitor, full curve, poor fit] |
| COc1ccc(OCCC(=O)Nc2ccccc2)cc1 | – | inconclusive [inhibitor, full curve, poor fit] |
| Cc1cccc2nc(C(F)(F)F)nc(=O)n12 | – | inconclusive [inhibitor, single point] |
| COc1ccc(C(=O)NCCS(=O)(=O)N2CCCC2)cc1 | – | inconclusive [inhibitor, full curve, poor fit] |
| O=C(Nc1cc2c3c(c1)CC(=O)N3CCC2)c1c(F)cccc1F | – | inconclusive [inhibitor, full curve, poor fit] |
| CCN(CC(=O)Nc1cc(Cl)ccc1C)C(=O)C1CC1 | – | inconclusive [inhibitor, full curve, poor fit] |
| CCOC(=O)c1ccc(NC(=O)COc2ccc(S(=O)(=O)NC(C)C)cc2)cc1 | – | inconclusive [inhibitor, single point] |
| O=S(=O)(c1cccc(-c2cn3cc(Cl)ccc3n2)c1)N1CCOCC1 | – | inconclusive [inhibitor, single point] |
| COCC(=O)Nc1cc(=O)n(C)c(=O)n1C | inactive: -14.1% | – |
| COc1ccc(NS(=O)(=O)c2cc(NC(=O)CNC(=O)c3ccc(C)s3)ccc2Cl)cc1 | – | inconclusive [inhibitor, full curve, poor fit] |
| CCOc1ccccc1CNC(c1ccccc1)c1ccccc1 | inactive: -6.15% | – |
| CCOc1cc2c(cc1OCC)-n1cccc1C(c1cc(OC)ccc1F)NC2 (stereo not given) | inactive: -7.66% | – |
| COc1ccc(C2(O)CC3CCC(C2)N3c2cc(C)nc(-c3ccccc3)n2)cc1 (stereo not given) | inactive: -0.118% | – |
| O=C(CSc1n[nH]c(-c2ccccn2)n1)Nc1cccc(Cl)c1 | inactive: 0.759% | – |
| CC(C)(C)SCCNS(=O)(=O)c1ccc(C#N)cc1 | – | inconclusive [inhibitor, partial curve, poor fit] |
| COCCN(C(=O)COC(=O)/C=C/c1ccc2c(c1)OCO2)c1c(N)n(Cc2ccccc2)c(=O)[nH]c1=O | – | inconclusive [inhibitor, single point] |
| CCOc1ccc(/C=N/Nc2ccccc2)cc1 | inactive: 0.0591% | – |
| COc1ccc(-n2ccc(-c3nn(-c4cccc(C(F)(F)F)c4)ccc3=O)n2)cc1 | inactive: -13.3% | – |
| O=Cc1cccc(OC(=O)c2ccc(Cl)cc2Cl)c1 | – | inconclusive [inhibitor, full curve, poor fit] |

| SMILES | activity change, negative = inhibition | Potency |
| --- | --- | --- |
| O=C(c1ccc(-c2cc(O)c3ncccc3c2)cc1)N1CCNCC1 | – | inconclusive [inhibitor, full curve, poor fit] |
| Cc1ccc(OCC(=O)Nc2ccccc2F)cc1C | inactive: 3.72% | – |
| COc1ccc(CNC(=O)CN(Cc2ccc(F)cc2)C(=O)CCC(=O)Nc2nccs2)cc1 | – | inconclusive [inhibitor, full curve, poor fit] |
| COc1ccc(CCNc2oc(-c3ccc(C)cc3)nc2C#N)cc1OC | – | inconclusive [inhibitor, full curve, poor fit] |
| CCOc1ccc(OCC)c(NC(=O)CC2Oc3ccccc3NC2=O)c1 (stereo not given) | – | inconclusive [inhibitor, partial curve, poor fit] |
| O=C(c1ccc(S(=O)(=O)Nc2ccccc2)cc1)N1CCCC1 | – | inconclusive [inhibitor, full curve] |
| Cc1cc2oc(C(=O)NC3CCS(=O)(=O)C3)c(C)c2cc1C (stereo not given) | – | inconclusive [inhibitor, full curve] |
| COc1ccc(C(=O)NCC(=O)N2CCC(Cc3ccccc3)CC2)cc1OC | – | inconclusive [inhibitor, partial curve, poor fit] |
| COC(=O)CCCC(=O)NC1CCCN(C2Cc3ccccc3C2)C1 (stereo not given) | – | inconclusive [inhibitor, full curve] |
| Cc1cccc(NC(=O)c2ccc(NCC3CCCO3)c([N+](=O)[O-])c2)c1 (stereo not given) | – | inconclusive [inhibitor, full curve, poor fit] |
| CC(C)c1nnc2n1N=C(c1ccc(Cl)cc1)CS2 | – | inconclusive [inhibitor, partial curve, poor fit] |
| Cc1nc2ccc(S(=O)(=O)NCC(=O)O)cc2s1 | – | inconclusive [inhibitor, full curve, poor fit] |
| COC(=O)c1ccc(/C=N\N2CCN(Cc3ccc(C)cc3)CC2)cc1 | – | inconclusive [inhibitor, single point] |
| O=C(CCNC(=O)c1ccc(Cl)cc1)Nc1ccc(S(=O)(=O)N2CCCCC2)cc1 | – | inconclusive [inhibitor, partial curve, poor fit] |
| CCOc1ncccc1C(=O)OCC(=O)N(CC(C)C)c1c(N)n(Cc2ccccc2)c(=O)[nH]c1=O | – | inconclusive [inhibitor, full curve, poor fit] |
| CCC(C)c1ccc(NC(=S)Nc2ccc(OC)cc2C)cc1 (stereo not given) | – | inconclusive [inhibitor, single point] |
| COC(=O)C1=C(C(=O)c2ccc(C)cc2)C(c2ccc(O)c(OC)c2)n2nnnc2N1 (stereo not given) | – | inconclusive [inhibitor, full curve, poor fit] |
| CC(C)(C)NC(=O)c1sccc1C(=O)O | – | inconclusive [inhibitor, full curve] |
| Cc1ccc(C(=O)N(C)CC(=O)Nc2ccc(Cl)c(C(F)(F)F)c2)cc1S(=O)(=O)N1CCCCC1 | inactive: -0.282% | – |
| O=C1CC(N2CCN(c3ccccn3)CC2)C(=O)N1CC(c1ccccc1)c1ccccc1 (stereo not given) | – | inconclusive [inhibitor, full curve, poor fit] |
| CCOc1ccc(N2C(=O)CC(Sc3nc(C)cc(C)c3C#N)C2=O)cc1 (stereo not given) | inactive: -1.49% | – |
| Cc1noc(NS(=O)(=O)c2ccc(NC(=O)c3cnc4n(c3=O)CCS4)cc2)c1C | – | inconclusive [inhibitor, full curve, poor fit] |

| SMILES | activity change, negative = inhibition | Potency |
| --- | --- | --- |
| O=C1Cc2ccccc2C(=O)N1OCc1ccc(Cl)cc1 | – | inconclusive [inhibitor, partial curve, poor fit] |
| COC(=O)C1CCN(C(=O)N2CCOCC2)CC1 | – | inconclusive [inhibitor, full curve, poor fit] |
| CCC(C)Nc1nc(-c2cccc(OC)c2O)nc2ccccc12 (stereo not given) | – | inconclusive [inhibitor, full curve, poor fit] |
| CN1CCN(c2oc(COc3ccc(-c4ccccc4)cc3)nc2C#N)CC1 | – | inconclusive [inhibitor, full curve, poor fit] |
| Cn1c(SCC(=O)Nc2nccs2)nnc1C12CC3CC(CC(C3)C1)C2 | – | inconclusive [inhibitor, full curve] |
| Cc1nc(Nc2nc3ccccc3o2)nc2c1CCC2 | – | inconclusive [inhibitor, full curve, poor fit] |
| O=C(COc1ccccc1Cl)N1CCN(c2ccc([N+](=O)[O-])c(N3CCCCC3)c2)CC1 | inactive: -3.54% | – |
| CCN(CC)C(=O)Cn1nc(-c2ccc(Cl)cc2)c2ccccc2c1=O | – | inconclusive [inhibitor, full curve, poor fit] |
| CCN1CCN(C(=O)c2oc(=O)c3ccccc3c2-c2ccc(C)cc2)CC1 | – | inconclusive [inhibitor, full curve, poor fit] |
| COc1ccc(-c2nc(SCC(=O)Nc3c(F)cccc3F)n[nH]2)cc1 | – | inconclusive [inhibitor, full curve, poor fit] |
| CC(=O)Nc1c(C(=O)N2CCOCC2)sc2nc3c(cc12)COC(C)(C)C3 | – | inconclusive [inhibitor, single point] |
| COC(=O)c1cc(NC(=O)CC2Oc3ccccc3NC2=O)cc(C(=O)OC)c1 (stereo not given) | inactive: -10.9% | – |
| COC(=O)CC(NC(=O)c1ccco1)c1ccc(C(C)C)cc1 (stereo not given) | inactive: -1.33% | – |
| CSc1ccc(C#N)cc1NC(=O)c1ccccc1 | – | inconclusive [inhibitor, partial curve] |
| CCc1c(C)nc(SCC(=O)NC2CCCC2)[nH]c1=O | – | inconclusive [inhibitor, full curve, poor fit] |
| Cc1ccc(NC(=O)NCCOCCn2c(=O)oc3ccccc32)c(C)c1 | inactive: 3.13% | – |
| CC/C(=N/NC(=O)c1ccc(Br)cc1)c1ccc(OCCN2CCOCC2)cc1 | inactive: 4.74% | – |
| Cc1ccc(-c2cnc3c(Cl)c(C)nn3c2)cc1 | – | inconclusive [inhibitor, partial curve, poor fit] |
| Cc1cc(NS(=O)(=O)c2ccc(NC(=O)Nc3ccc4c(c3)OCO4)cc2)no1 | – | inconclusive [inhibitor, full curve, poor fit] |
| Cc1ccc(S(=O)(=O)N2CCN(C(=O)CN3C(=O)CNC3=O)CC2)cc1 | – | inconclusive [inhibitor, single point] |
| Cc1ccc(C(=O)Nc2ccc(N3CCN(C)CC3)cc2)cc1 | – | inconclusive [inhibitor, partial curve, poor fit] |
